In PubChem BioAssay AID686979 (National Center for Advancing Translational Sciences (NCATS), 2013):
Screen size: about 420,000 compounds; about 50,000 (12%) were called active. The inconclusive results got no clear call from the source; some entries with a clear call stand among them for comparison. Calls come from the whole dose curve; as a rule, active = well fitted inhibition curve with a large enough effect; inconclusive = small, poorly fitted or top-dose-only effect; inactive = flat fitted curve, though single readings scatter. No potency is given beside an inconclusive call; the fits are too rough.

Assay: qHTS for Inhibitors of human tyrosyl-DNA phosphodiesterase 1 (TDP1): qHTS in cells in presence of CPT; note: nearly all actives have a fitted effect of over 55% in size
Conditions: chicken DT40 Tdp1-/-;hTDP1 cells + 20 nM CPT, ATP luminescence, 48 h; activity change, negative = growth inhibition: at 46.2 µM (top of the series)
Outline: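 Chicken DT40 Tdp1-/- cells complemented with human TDP1, 400 cells/well, exposed to compounds plus 20 nM camptothecin for at least 48 h at 37 C; viability read as ATP content by CellTiter-Glo luminescence.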
% is set by controls: 0 for no effect and ±100 for the full control effect; potency is the fitted concentration of half-maximal effect; tags give direction and shape of the fitted curve.

Row | Structure (SMILES) | Potency | activity change, negative = growth inhibition
1 | O=C(CSc1cccc[n+]1[O-])c1ccc(Cl)cc1 | inconclusive [inhibitor, single point] | –
2 | O=C(Cn1ccc(=O)[nH]c1=O)NCCO | – | inactive: -2.12%
3 | COc1ccc(NC(=O)c2ccccc2-c2ccccc2)c(C)c1 | inconclusive [inhibitor, single point] | –
4 | CC(C)c1ccc(NC(=O)C2CCCN2S(=O)(=O)c2ccccc2F)cc1 (stereo not given) | inconclusive [inhibitor, single point] | –
5 | Cc1ccc(CNC(=O)Cn2c(=O)n(Cc3ccccc3)c(=O)c3sc4ccccc4c32)cc1 | inconclusive [inhibitor, full curve] | –
6 | COc1cccc(CC2(CO)CCN(CC3=CC[C@H]4C[C@@H]3C4(C)C)CC2)c1 | inconclusive [inhibitor, single point] | –
7 | Cc1ccc(NC(=O)c2cnn(-c3ccccc3)c2C)cc1C | inconclusive [inhibitor, partial curve, poor fit] | –
8 | Cc1ccccc1Nc1c(-c2ccc(Br)o2)nc2ccc(Cl)cn12 | inconclusive [inhibitor, single point] | –
9 | Cc1cc(C)cc(NS(=O)(=O)c2ccc3[nH]cc(C(=O)N4CCc5ccccc54)c(=O)c3c2)c1 | inconclusive [inhibitor, partial curve] | –
10 | CCC(C)[C@H](NC(=O)N1CCCCCC1)C(=O)OC (stereo not given in full) | – | inactive: -4.59%
11 | CC(=O)N(CCc1ccccc1C)Cc1cc2cc3c(cc2[nH]c1=O)OCO3 | inconclusive [inhibitor, single point] | –
12 | COc1ccc(C(=O)N2CCN(c3ccc(C)cc3C)CC2)cc1OC | active: 20.6 µM | –
13 | CC(C)CCNC(=O)Nc1ccc2c(c1)N(Cc1ccccc1)C(=O)c1ccccc1S2 | active: 18.4 µM | –
14 | Cc1ccc(C(=O)Nc2sc(C)c(C)c2C(=O)c2ccccc2)cc1 | active: 16.4 µM | –
15 | Cc1ccc(S(=O)(=O)CC(=O)Nc2sc3c(c2C(N)=O)CCCC3)cc1 | active: 14.6 µM | –
16 | CC(C)N1CCN(Cc2ccoc2)CC1CCO (stereo not given) | – | inactive: -4.58%
17 | COc1ccc(CCNC(=O)c2ccc3c(c2)N(Cc2ccc(Cl)cc2)C(=O)c2ccccc2S3)cc1OC | inconclusive [inhibitor, single point] | –
18 | CC(=O)c1ccc(S(=O)(=O)N2CCN(CC(=O)Nc3ccccc3C(=O)NC3CC3)CC2)cc1 | inconclusive [inhibitor, single point] | –
19 | Cc1ccc(NC(=O)CCN2CCN(CCO)CC2)cc1C | – | inactive: -10.1%
20 | COc1ccc(N(CC(=O)Nc2cc(C)on2)S(=O)(=O)c2cc(C)ccc2C)cc1 | inconclusive [inhibitor, partial curve] | –
